# PubChem BioAssay AID504332 (National Center for Advancing Translational Sciences (NCATS), 2011)
# Out of some 350,000 compounds screened, about 31,000 (8.9%) were called active. This list was built around the results that the source calls inconclusive (neither active nor inactive); the mix of calls is not that of the screen. The call rests on the fitted dose curve; in most records, active means well fitted inhibition curve with a large enough effect; inconclusive means small, poorly fitted or top-dose-only effect; inactive means no such curve, though single readings can be large or run the other way. Potencies beside an inconclusive call are fits to weak or partial responses and may not hold up.
# Biological target: Histone-lysine N-methyltransferase EHMT2 (Homo sapiens) (UniProt Q96KQ7)
# UniProt Q96KQ7, sequence (Q96KQ7 whole entry, looked up): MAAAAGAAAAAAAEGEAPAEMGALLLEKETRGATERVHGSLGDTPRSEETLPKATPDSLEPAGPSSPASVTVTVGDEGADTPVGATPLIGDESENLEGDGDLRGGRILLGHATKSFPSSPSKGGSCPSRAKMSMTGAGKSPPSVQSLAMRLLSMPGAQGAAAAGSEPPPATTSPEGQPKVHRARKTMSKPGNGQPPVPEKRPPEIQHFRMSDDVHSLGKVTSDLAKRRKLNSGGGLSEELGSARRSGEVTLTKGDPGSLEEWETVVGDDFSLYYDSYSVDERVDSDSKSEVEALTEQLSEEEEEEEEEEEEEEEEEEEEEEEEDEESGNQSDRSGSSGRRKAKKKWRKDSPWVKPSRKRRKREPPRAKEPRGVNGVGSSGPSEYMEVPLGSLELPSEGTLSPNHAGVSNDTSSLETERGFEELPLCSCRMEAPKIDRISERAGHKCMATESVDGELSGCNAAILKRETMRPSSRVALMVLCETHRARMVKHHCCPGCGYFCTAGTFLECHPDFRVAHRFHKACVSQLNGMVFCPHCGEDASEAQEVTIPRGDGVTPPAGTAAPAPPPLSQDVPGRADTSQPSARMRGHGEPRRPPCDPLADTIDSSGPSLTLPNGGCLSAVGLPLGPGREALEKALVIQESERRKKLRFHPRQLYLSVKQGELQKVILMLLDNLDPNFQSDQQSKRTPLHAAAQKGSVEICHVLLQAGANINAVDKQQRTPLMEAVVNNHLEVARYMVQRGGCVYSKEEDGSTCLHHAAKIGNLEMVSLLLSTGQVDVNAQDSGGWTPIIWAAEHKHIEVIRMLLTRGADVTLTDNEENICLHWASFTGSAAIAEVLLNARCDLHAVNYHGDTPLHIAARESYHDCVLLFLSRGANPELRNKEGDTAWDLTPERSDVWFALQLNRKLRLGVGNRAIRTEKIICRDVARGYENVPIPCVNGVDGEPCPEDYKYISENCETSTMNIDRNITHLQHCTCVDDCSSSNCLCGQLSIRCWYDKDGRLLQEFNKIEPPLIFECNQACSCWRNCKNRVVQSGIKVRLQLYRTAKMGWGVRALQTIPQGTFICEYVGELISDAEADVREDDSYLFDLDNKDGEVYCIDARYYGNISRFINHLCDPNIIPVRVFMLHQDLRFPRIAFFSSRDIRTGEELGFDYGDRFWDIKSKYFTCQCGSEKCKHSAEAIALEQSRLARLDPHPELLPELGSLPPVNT
# Test: qHTS Assay for Inhibitors of Histone Lysine Methyltransferase G9a; further: nearly all actives have a fitted effect of over 75% in size
# Conditions: G9a H3K9 monomethylation, AlphaScreen, 2 h; activity, negative = inhibition: at 59 µM (top of the series) unless noted
# Method in brief: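 Compounds were preincubated with 20 nM G9a for 15 min, after which biotinylated H3K9 peptide (500 nM) and SAM (20 uM) started a 2 h room-temperature reaction. Monomethylated product was quantified by antibody-based AlphaScreen chemiluminescence.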
# On the % scale 0 is the no-effect control and ±100 the full control effect; potency means the concentration at half of the fitted maximal effect; tags describe the fitted curve by direction and shape.
SMILES,Potency,"activity, negative = inhibition"
Cc1ccc(NC(=O)CCc2nc3cccnc3n2-c2ccccc2)cc1Cl,"inconclusive: 22.4 µM [inhibitor, partial curve, poor fit]",–
O=c1c2sc3ccccc3c2n(Cc2ccc(Cl)cc2)c(=O)n1Cc1ccco1,–,inactive: 0.931%
CCOc1ccc(CN2CCC(=O)NC2=O)cc1,–,inactive: 11.9% [at 102 µM]
CCN(C(=O)COc1cc(OC)ccc1C(C)=O)C1CCS(=O)(=O)C1 (stereo not given),–,inactive: 23.2% [at 12.7 µM]
CC(C)(C)OC(=O)NCc1n[nH]c(=S)n1C1CC1,"inconclusive: 25.1 µM [inhibitor, single point]",–
COc1ccccc1NC(=S)NCc1cccnc1,–,inactive: 10.9%
COc1ccc(CNC(=O)CC2Oc3ccc(C)cc3NC2=O)cc1 (stereo not given),–,inactive: 7.92%
Cc1cc(=O)oc2cc(OCC3CC(c4ccc(Cl)cc4)=NO3)ccc12 (stereo not given),"inconclusive: 70.8 µM [inhibitor, single point]",–
O=C(Nc1ccccc1C(F)(F)F)c1cc2ncc(CCCl)cn2n1,"inconclusive: 89.1 µM [inhibitor, single point]",–
Cc1ccccc1NC(=O)CCn1nc(-c2ccc(Cl)cc2)c2ccccc2c1=O,"inconclusive: 39.8 µM [inhibitor, partial curve, poor fit]",–
O=C(O)CN1C(=O)/C(=C/c2ccsc2)SC1=S,active: 31.6 µM,–
CC1=C(C(N)=O)C(c2ccccn2)n2nc(SCc3ccccc3)nc2N1 (stereo not given),"inconclusive: 28.2 µM [inhibitor, single point]",–
CCOC(=O)c1ccc(NC(=S)N(CCCN2CCCC(C)C2)Cc2cccs2)cc1 (stereo not given),"inconclusive: 31.6 µM [inhibitor, partial curve]",–
CCOC(=O)c1c(-c2ccc(C)cc2)csc1NC(=O)C1CC=CCC1C(=O)O (stereo not given),"inconclusive: 39.8 µM [inhibitor, single point]",–
CCOc1ccc(CCNC(=O)c2nn(C)c3c2CSc2ccc(C)cc2-3)cc1OCC,"inconclusive: 14.1 µM [inhibitor, partial curve, poor fit]",–
CCOC(=O)c1c(-n2c(C)cc(C=O)c2C)sc2c1CCCC2,"inconclusive: 89.1 µM [inhibitor, single point]",–
Cc1cccc(Nc2nnc(SCC(=O)c3c(N)n(C4CC4)c(=O)[nH]c3=O)s2)c1C,"inconclusive: 10 µM [inhibitor, single point]",–
COc1cc(C(=O)O)ccc1OCc1c(C)noc1C,"inconclusive: 28.2 µM [inhibitor, partial curve, poor fit]",–
O=C(CSc1nc(C(F)(F)F)cc(=O)[nH]1)N1CCC(Cc2ccccc2)CC1,"inconclusive: 39.8 µM [inhibitor, partial curve]",–
O=C(NCc1cccnc1)c1cc(S(=O)(=O)N2CCOCC2)c(Cl)cc1Cl,–,inactive: -2.17% [at 2.33 µM]
CC(=O)c1ccc(C(=O)N(CCN(C)C)c2nc3c(Cl)cccc3s2)cc1,"inconclusive: 89.1 µM [inhibitor, single point]",–
Clc1ccc2nc(-c3cccs3)c(Nc3ccc4c(c3)OCCO4)n2c1,–,inactive: 4.15%
CCC(Sc1nc(-c2ccccc2)c(-c2ccccc2)[nH]1)C(=O)O (stereo not given),active: 50.1 µM,–
COCCn1c(C)cc(C2=NNC(=NC(C)(C)C)SC2)c1C,"inconclusive: 50.1 µM [inhibitor, partial curve, poor fit]",–

SMILES,Potency,"activity, negative = inhibition"
O=[N+]([O-])c1ccccc1C1Nc2cccc3cccc(c23)N1,active: 2.82 µM,–
C=CCNS(=O)(=O)c1cc2c3c(c1)CCN3C(=O)CC2,–,inactive: -10% [at 102 µM]
COCCCNC(=O)c1ccc(-n2c(-c3ccccc3)cc3c2CCCCC3)cc1,"inconclusive: 25.1 µM [inhibitor, partial curve, poor fit]",–
COC(=O)C1CCN(S(=O)(=O)CCNC(=O)c2cccc(OC)c2)CC1,active: 35.5 µM,–
Cc1n[nH]c(=O)nc1NCc1ccccc1,–,inactive: 29.4% [at 102 µM]
O=C(NCc1ccccc1)c1nc(-c2ccc(Cl)cc2)n2c1CCCCC2,active: 14.1 µM,–
O=S(=O)(c1ccccc1)N1CCC(N2CCCCCC2)CC1,"inconclusive: 28.2 µM [inhibitor, single point]",–
CCOC(=O)c1c(NC(=O)C2(C)Cc3ccccc3C(=O)O2)sc2c1CCCC2 (stereo not given),"inconclusive: 7.08 µM [inhibitor, full curve, poor fit]",–
Cc1ccc(N(CC(=O)NCc2ccncc2)S(C)(=O)=O)cc1,"inconclusive: 39.8 µM [inhibitor, single point]",–
O=C(O)c1c[nH]c2cc(C(F)(F)F)ccc2c1=O,–,inactive: 39.2% [at 0.501 µM]
O=C(CSc1c[nH]c2ccccc12)NCc1ccc2c(c1)OCO2,"inconclusive: 31.6 µM [inhibitor, single point]",–
S=C(NCc1ccccc1)N1CCn2cccc2C1c1ccncc1 (stereo not given),"inconclusive: 56.2 µM [inhibitor, partial curve, poor fit]",–
CCOc1cc(/C=N/NC(=O)c2cccs2)cc([N+](=O)[O-])c1O,"inconclusive: 79.4 µM [inhibitor, single point]",–
Cc1ccc(NC(=O)CN(C)C(=O)COc2c(Cl)cc(Cl)c3ccc(C)nc23)cc1,"inconclusive: 89.1 µM [inhibitor, single point]",–
c1ccc(-c2nnc(-c3ccccn3)c(-c3ccccn3)n2)nc1,"inconclusive: 56.2 µM [inhibitor, partial curve, poor fit]",–
COCCn1c(C)nc2oc3ccc(Br)cc3c(=O)c2c1=O,"inconclusive: 89.1 µM [inhibitor, single point]",–
Cc1noc(C)c1S(=O)(=O)NCC(=O)O,"inconclusive: 35.5 µM [inhibitor, partial curve, poor fit]",–
COc1ccc(NC(=O)CN2CCN(C3c4ccccc4-c4ccccc43)CC2)c(OC)c1,active: 44.7 µM,–
Cc1cccc2cc(CN(Cc3cccnc3)C(=S)NCCCN(C)C)c(=O)[nH]c12,"inconclusive: 44.7 µM [inhibitor, partial curve]",–
O=C(CCCCCN1C(=O)c2ccccc2C1=O)NCc1ccco1,"inconclusive: 20 µM [inhibitor, single point]",–
Cc1ccc2c([N+](=O)[O-])cccc2n1,"inconclusive: 31.6 µM [inhibitor, single point]",–
CCOc1ccccc1-n1nnnc1SCC(=O)NC(=O)Cc1ccccc1,active: 10 µM,–
Cc1ccc(C)c(NC(=O)Cn2c(=O)n(CCCS(=O)(=O)C3CCCCC3)c(=O)c3ccccc32)c1,–,inactive: 21%
CN(Cc1cccnc1)Cc1c(C(=O)N2CCc3ccccc3C2)nc2ccc(Cl)cn12,active: 50.1 µM,–

SMILES,Potency,"activity, negative = inhibition"
COc1ccc(Cl)cc1C(=O)NCC(c1ccc(N(C)C)cc1)N1CCCC1 (stereo not given),–,inactive: 18.8%
O=C1N=C2N(CCN3CCCCC3)c3ccccc3N2/C1=C\c1ccc([N+](=O)[O-])o1,–,inactive: -12% [at 12.7 µM]
COc1ccc(C(=O)C2CCCN(C(=O)c3cccnc3OC)C2)c(C)c1 (stereo not given),"inconclusive: 89.1 µM [inhibitor, single point]",–
Cc1cc(C)c(NC(=S)N(CCN2CCCCC2)Cc2ccco2)c(C)c1,"inconclusive: 39.8 µM [inhibitor, single point]",–
Cc1ccc(-c2noc(N=O)c2NO)cc1,"inconclusive: 79.4 µM [inhibitor, single point]",–
CC(C)CNC(=S)NC(=O)c1csc([N+](=O)[O-])c1,"inconclusive: 22.4 µM [inhibitor, single point]",–
O=C(CNC(=O)C12CC3CC(CC(C3)C1)C2)OCC(=O)N1CCCCC1,"inconclusive: 89.1 µM [inhibitor, partial curve, poor fit]",–
CCn1c(SCC(=O)c2ccc(OC)cc2)nnc1C(C)NC(=O)c1ccc(OC)cc1 (stereo not given),active: 44.7 µM,–
O=C(O)C1C2C=CC(C3CC23)C1C(=O)N1CCc2ccccc21 (stereo not given),active: 79.4 µM,–
Clc1cccc(Cl)c1C1=NOC(c2nnc(-c3ccccc3)o2)C1 (stereo not given),"inconclusive: 2 µM [inhibitor, partial curve, poor fit]",–
CC(=O)c1c(C)n(-c2cccc(Cl)c2)c2ccc(O)cc12,active: 35.5 µM,–
c1ccc(C2COC(c3cccs3)=N2)cc1 (stereo not given),–,inactive: -2.62% [at 102 µM]
CCOc1cc2c3c(c1)C1(Nc4ccccc4S1)C(=O)N3C(C)(C)CC2C (stereo not given),"inconclusive: 39.8 µM [inhibitor, single point]",–
O=C(/C=C\c1ccco1)Nc1ccc(N2CCN(C(=O)c3ccccc3)CC2)cc1,"inconclusive: 31.6 µM [inhibitor, single point]",–
S=c1[nH]c2cc3ccccc3cc2[nH]1,active: 2.24 µM,–
COc1cccc(Nc2ccc(C(=O)O)cc2N)c1,"inconclusive: 79.4 µM [inhibitor, single point]",–
O=C(c1ccc(-c2cccc(C(F)(F)F)c2)o1)N1CCOCC1,"inconclusive: 31.6 µM [inhibitor, partial curve]",–
COc1ccc(-n2c(=O)c3c4c(sc3n(CC(=O)C(C)(C)C)c2=O)CCCC4)c(OC)c1,"inconclusive: 25.1 µM [inhibitor, partial curve, poor fit]",–
CN(C(=O)CCN1C(=O)c2ccccc2C1=O)C1CCCCC1,"inconclusive: 25.1 µM [inhibitor, single point]",–
Cn1cc[n+](C)c1COc1ccc(C=O)cc1,"inconclusive: 89.1 µM [inhibitor, single point]",–
COC(=O)c1cccc(CN2C(=O)SC(Nc3ccccc3C)C2=O)c1 (stereo not given),–,inactive: 4.44%
Cc1ccc(OCC(=O)Nc2ccc(S(=O)(=O)Nc3ccccn3)cc2)c(C)c1,"inconclusive: 79.4 µM [inhibitor, single point]",–
